From the antibiotic and cytotoxicity screens of Wong et al. (2023)
The other results are listed elsewhere or left out.

What was measured:
HSkMC = human skeletal muscle cells; assay: cytotoxicity call (relative viability < 0.9); conditions: 10 µM
HepG2 = assay: cytotoxicity call (relative viability < 0.9); conditions: 10 µM
S. aureus RN4220 = assay: growth inhibition call (relative growth <= 0.2); conditions: 50 µM

SMILES	cytotoxicity call (HSkMC)	cytotoxicity call (HepG2)	growth inhibition call (S. aureus RN4220)
N[C@@H](Cc1ccccn1)c1ccccc1	inactive	inactive	inactive
C[C@H](CO)N1C[C@H](C)[C@@H](CN(C)Cc2ccc(Oc3ccccc3)cc2)Oc2ccc(NC(=O)C3CCCCC3)cc2C1=O	inactive	inactive	inactive
C[C@@H]1CCCCO[C@H](CN(C)Cc2ccc(Cl)c(Cl)c2)[C@H](C)CN([C@@H](C)CO)C(=O)c2cc(NC(=O)Nc3ccc(C(F)(F)F)cc3)ccc2O1	inactive	active	inactive
CC(C)c1c(C(=O)Nc2ccccc2)c(-c2ccccc2)c(-c2ccc(F)cc2)n1CCC(O)CC(O)CC(=O)[O-].[Ca+2] (stereo not given)	inactive	inactive	inactive
C[C@@H]1CN([C@@H](C)CO)C(=O)Cc2cc(NC(=O)Nc3cccc4ccccc34)ccc2O[C@@H]1CN(C)C(=O)Nc1ccc2c(c1)OCO2	inactive	inactive	inactive
COc1ccc(S(=O)(=O)N(C)C[C@@H]2OCCCC[C@H](C)Oc3ccc(NC(=O)NC4CCCCC4)cc3C(=O)N([C@@H](C)CO)C[C@@H]2C)cc1	inactive	inactive	inactive
CC1CCC(C(C)C)C(=O)C1 (stereo not given)	inactive	inactive	inactive
COc1ccccc1CNC(=O)C[C@@H]1CC[C@@H]2[C@H](COC[C@H](O)CN2C(=O)Nc2ccc(Cl)cc2)O1	inactive	inactive	inactive
NCCN1CCC[C@H](C(N)=O)C1	inactive	inactive	inactive
C[C@@H]1CCCCO[C@@H](CN(C)C(=O)c2ccccc2)[C@H](C)CN([C@@H](C)CO)C(=O)c2cc(NC(=O)Nc3ccc(F)cc3)ccc2O1	inactive	inactive	inactive
